Measurements reported in publication PMC4292585.
These are yes or no findings as the source states them, for the method shown. In cells and extracts the contact can be indirect. Some binding calls cover weakened binding; strength is not graded here.

The chains behind the UniProt entries cited, without tags or fusion partners.
UniProt P17096: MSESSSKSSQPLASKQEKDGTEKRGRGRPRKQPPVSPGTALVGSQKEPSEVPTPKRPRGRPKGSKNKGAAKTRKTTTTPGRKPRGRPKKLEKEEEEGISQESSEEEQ
UniProt Q13562: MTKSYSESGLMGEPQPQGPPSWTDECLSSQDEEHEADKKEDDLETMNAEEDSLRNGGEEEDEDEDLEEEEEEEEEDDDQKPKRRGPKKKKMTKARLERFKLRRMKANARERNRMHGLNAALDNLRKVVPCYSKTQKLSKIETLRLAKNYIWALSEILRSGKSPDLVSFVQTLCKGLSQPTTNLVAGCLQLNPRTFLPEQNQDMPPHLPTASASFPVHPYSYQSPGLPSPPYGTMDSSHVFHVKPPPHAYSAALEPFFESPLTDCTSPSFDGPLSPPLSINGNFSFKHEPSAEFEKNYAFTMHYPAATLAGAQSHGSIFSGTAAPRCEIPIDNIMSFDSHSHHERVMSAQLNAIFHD
UniProt P52945: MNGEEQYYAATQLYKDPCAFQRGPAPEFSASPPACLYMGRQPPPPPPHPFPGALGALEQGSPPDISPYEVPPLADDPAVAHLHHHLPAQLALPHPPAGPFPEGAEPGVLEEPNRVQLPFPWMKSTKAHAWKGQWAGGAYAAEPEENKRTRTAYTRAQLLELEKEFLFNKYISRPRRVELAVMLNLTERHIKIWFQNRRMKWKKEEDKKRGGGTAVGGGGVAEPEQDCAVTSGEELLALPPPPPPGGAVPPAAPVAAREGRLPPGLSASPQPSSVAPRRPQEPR
UniProt Q8NHW3: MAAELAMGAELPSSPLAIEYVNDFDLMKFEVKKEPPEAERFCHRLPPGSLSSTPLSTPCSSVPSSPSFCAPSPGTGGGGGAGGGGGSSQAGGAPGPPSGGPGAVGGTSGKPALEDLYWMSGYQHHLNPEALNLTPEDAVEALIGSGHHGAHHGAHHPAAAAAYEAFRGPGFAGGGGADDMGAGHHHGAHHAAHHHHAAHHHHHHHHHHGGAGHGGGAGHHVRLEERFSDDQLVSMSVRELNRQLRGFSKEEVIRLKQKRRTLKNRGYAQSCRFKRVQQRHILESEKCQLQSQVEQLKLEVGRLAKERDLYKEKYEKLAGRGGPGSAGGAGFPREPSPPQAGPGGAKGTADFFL
UniProt D3ZNT6: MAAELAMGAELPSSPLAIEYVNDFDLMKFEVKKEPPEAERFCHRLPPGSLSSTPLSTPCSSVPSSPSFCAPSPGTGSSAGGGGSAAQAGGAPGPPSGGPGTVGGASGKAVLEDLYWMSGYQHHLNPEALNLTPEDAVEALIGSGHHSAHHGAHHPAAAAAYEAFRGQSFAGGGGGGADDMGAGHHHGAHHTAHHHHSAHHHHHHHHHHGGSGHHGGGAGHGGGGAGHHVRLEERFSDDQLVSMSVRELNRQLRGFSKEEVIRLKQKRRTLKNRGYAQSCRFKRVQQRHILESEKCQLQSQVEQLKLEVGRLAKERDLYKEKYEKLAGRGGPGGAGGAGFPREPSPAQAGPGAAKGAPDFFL
UniProt P52947: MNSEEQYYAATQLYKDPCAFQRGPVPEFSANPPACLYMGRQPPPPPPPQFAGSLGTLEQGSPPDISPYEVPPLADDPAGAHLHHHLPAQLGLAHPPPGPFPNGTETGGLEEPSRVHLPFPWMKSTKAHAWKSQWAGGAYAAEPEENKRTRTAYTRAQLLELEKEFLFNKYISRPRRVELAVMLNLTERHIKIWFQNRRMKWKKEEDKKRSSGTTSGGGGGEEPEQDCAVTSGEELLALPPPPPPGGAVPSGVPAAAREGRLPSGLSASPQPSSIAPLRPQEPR

Assays:
[1] = target: Glutathione S-transferase (GST)-tagged human HMGA1 (human) (UniProt P17096); test: pull-down; 35S-labeled proteins retained on GST-HMGA1 or GST affinity resin, in the absence of DNA; SDS-PAGE; only the target purified
[2] = target: T1, HMGA1, endogenous in INS-1 nuclear extract (rat (endogenous in INS-1)) (UniProt Q8K585); test: co-IP; anti-HMGA1 polyclonal antibody coupled to protein A-Sepharose beads; INS-1 nuclear extract (500 μg), 3 h at 4°C; washed in NETN buffer (0.1% NP-40, 150 mM NaCl, 1 mM EDTA, 50 mM Tris-HCl pH 8.0); immunoblot with anti-PDX-1 or anti-MafA
T1 sequence: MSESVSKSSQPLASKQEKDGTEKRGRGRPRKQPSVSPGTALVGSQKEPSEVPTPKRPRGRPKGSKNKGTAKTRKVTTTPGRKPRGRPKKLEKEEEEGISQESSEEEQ

| Substance | binding [1] | binding [2] |
| --- | --- | --- |
| 35S-NeuroD (from UniProt Q13562 1-356) | no binding |  |
| Human 35S-labeled PDX-1 (pancreatic and duodenal homeobox factor-1) (from UniProt P52945 1-283) | binds |  |

Other lines, results leading:

| binding [1] | binding [2] | Substance |
| --- | --- | --- |
| binds |  | Human 35S-labeled MafA (V-maf musculoaponeurotic fibrosarcoma oncogene homolog A) (from UniProt Q8NHW3 1-353) |
|  | binds | MafA, endogenous in INS-1 nuclear extract (from UniProt D3ZNT6 1-361) |
|  | binds | PDX-1, endogenous in INS-1 nuclear extract (from UniProt P52947 1-283) |
